From PubChem BioAssay AID651687 (Broad Institute, 2012)
The campaign covered roughly 350,000 compounds. About 600 (0.17%) were called active. The inconclusive results got no clear call from the source; some entries with a clear call stand among them for comparison.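 Rule for the calls: active = every replicate shows inhibition of at least 40%; inconclusive = mean inhibition at least 40% but some replicate below; inactive = the rest.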

Assay: inhibitors of PGC1a acetylation signal, primary screen, cell-based, U2OS, AlphaScreen, inhibitor mode (AID 651687);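 note: 0% = neutral control wells and 100% = positive control wells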
Conditions: AlphaScreen anti-acetyl-lysine, at 15.6 µM, stronger effect = higher value, with virally co-expressed GCN5 acetyltransferase

SMILES	inhibition
O=C(c1cccc(F)c1)N1CCCCN2[C@@H](CO)[C@H](c3ccc(C#CC4(O)CCCC4)cc3)[C@@H]2C1	inactive: 3.15%
CCn1c(SC/C=C/c2ccccc2)nnc1-c1cccs1	inconclusive: 49.8%
O=C(Nc1cccn2ncnc12)C(Cl)Cl	inconclusive: 2.46%
Cc1ccc(S(=O)(=O)NC2=NCCCCC2)cc1	inconclusive: 46.4%
CCS(=O)(=O)Nc1ccc2c(c1)C(=O)N(C)C[C@@H](OC)[C@H](C)CN(Cc1ccccn1)[C@@H](C)CO2	inconclusive: 44.4%
Clc1ccc(Oc2cccc(/C=N/n3cnnc3)c2)cc1	inconclusive: 83.3%
Cc1c(Cl)cccc1Nc1ncccc1C(=O)O	inconclusive: 56.4%
Cc1noc(C)c1CSc1nnc(-c2cccnc2)n1C1CCCCC1C (stereo unspecified)	inconclusive: 49.1%
C[C@@H]1CN([C@@H](C)CO)S(=O)(=O)c2ccc(-c3ccc(C#N)cc3)cc2O[C@H]1CN(C)C(=O)CN(C)C	inconclusive: 40.8%
O=C(C[C@H]1CC[C@H]2[C@@H](COC[C@H](O)CN2S(=O)(=O)c2ccc(Cl)cc2)O1)N[C@@H]1CCN(Cc2ccccc2)C1	inactive: 3.42%
Cc1ccc(-c2cnc3c(c2)C(=O)N([C@H](C)CO)C[C@H](C)[C@@H](CN(C)C)O3)cc1	inconclusive: 49.8%
COc1ccc(NC(=O)C/C(C)=N/NC(=O)C(=O)NC(C)C)c(OC)c1	inconclusive: 48.3%
Cc1nc2ccccc2n2c(O)c(CC(=O)O)cc12	inconclusive: 40.9%
Cc1ccc(NC(=O)COC(=O)COc2ccc(Cl)cc2)c([N+](=O)[O-])c1	inconclusive: 40.4%
O=C(Nc1ccc(C(=O)N2CCCC2)cc1)C1CCCCC1	inactive: -0.077%
Cn1nnnc1SCC(=O)NCc1cccc(C(=O)O)c1	inconclusive: 40.8%
C[C@@H]1CN([C@H](C)CO)S(=O)(=O)c2ccc(-c3cncnc3)cc2O[C@H]1CN(C)Cc1cccnc1	inconclusive: 50.3%
Cc1cc(Br)c(OCc2ccc(C(=O)N/N=C/c3ccc[nH]3)cc2)c(Br)c1	active: 86.7%
Cc1ccc(C(=O)CSc2nc(C)cc(SCc3nnc(-c4ccccc4)o3)n2)cc1	inactive: -10.6%
CC(C)NC(=O)Nc1ccc2c(c1)C(=O)N([C@@H](C)CO)C[C@@H](C)[C@H](CN(C)S(=O)(=O)c1ccccc1)OCCCC[C@@H](C)O2	active: 124%
C[C@H]1CN([C@@H](C)CO)S(=O)(=O)c2ccc(C#CC3CC3)cc2O[C@H]1CN(C)CC1CCOCC1	inactive: -7.53%
